In publication PMC9574860, “Chemical Toolkit for PARK7: Potent, Selective, and High-Throughput” (Journal of Medicinal Chemistry, 2022):
About 400 (5.1%) of roughly 7,900 compounds showed an effect of 50% or more. This is one part of the list.

The compounds below were run against Parkinson's disease protein 7 (PARK7/DJ1) (human, UniProt Q99497) (assay: primary screen, percent inhibition; read as competition with a fluorescent probe by fluorescence polarization; higher = more effect of the substance). Details: 100 µM.
Chain of Parkinson's disease protein 7 (PARK7/DJ1) (Q99497 whole entry, looked up, the tested form may be a part): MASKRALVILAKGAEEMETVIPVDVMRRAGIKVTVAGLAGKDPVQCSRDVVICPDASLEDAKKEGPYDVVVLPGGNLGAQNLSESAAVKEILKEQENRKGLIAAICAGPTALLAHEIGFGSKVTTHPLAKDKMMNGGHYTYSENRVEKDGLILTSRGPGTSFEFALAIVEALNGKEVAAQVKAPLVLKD
Procedure, shortened: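 Fluorescence-polarization probe displacement (JYQ-107, 20 nM final, 2 h) after 2 h preincubation of PARK7 (0.2 μM final) with each fragment at 100 μM final. Read-out ex/em 480/520 nm; remaining activity derived from FP signal loss relative to reference controls.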
For `N#Cc1nc(N2CC(CF)C2)ccc1Cl`, the Inhibition % was 3.54%.
Compound `C=CC(=O)N1CCc2ccc(C(F)(F)F)cc2C1` has an Inhibition % of 6.6%.
With `CS(=O)(=O)OCCC1CCCCO1` (stereo not drawn) the Inhibition % was 10.5%.
`C=CC(=O)NC(C)C1OCCc2sccc21` (stereo not drawn) showed an Inhibition % of 5.8%.
`CC1(C)OB(c2ccc(S(=O)(=O)NCCO)cc2)OC1(C)C` gave an Inhibition % of 4.41%.
`C#CCN(C)c1cnc(C#N)cn1` showed an Inhibition % of 15%.
Work on `O=C(CN1CCSC1=O)Nc1ccc2c(c1)OCO2` yielded an Inhibition % of 27.4%.
`O=C(CCl)Nc1ccc(N2CCCC2)cc1` gave an Inhibition % of 7.34%.
With `Cc1nc2c(n1C1CCN(C3CCOC3=O)C1)CCCC2` (stereo not drawn) the Inhibition % was 9.93%.
In the case of `Cn1cc(CN2C[C@@H](F)C[C@H]2CO)cc1C#N`, the Inhibition % is reported as 8.87%.
For `CC1Cc2ccccc2N1C(=O)CN1C(=O)CCC1=O` (stereo not drawn), the Inhibition % was -0.183%.
With `CC(C)c1cc(NC(=O)CCl)on1` the Inhibition % was 20.6%.
Compound `Cc1c(C#N)c(NC(=O)CCl)n(-c2ccccc2)c1C` has an Inhibition % of 4.52%.
`C=CC(=O)NCC1CSc2ccccc21` (stereo not drawn) showed an Inhibition % of 8.41%.
With `C=CC(=O)NC1COCC1C` (stereo not drawn) the Inhibition % was 12.7%.
Work on `Cc1ccc(CN(C)C(=O)Cn2cnc(C#N)n2)c(C)c1` yielded an Inhibition % of 3.86%.
With `CC1=C(C)CN(c2nccnc2C#N)CC1` the Inhibition % was 26%.
`O=C(CCl)c1ccccn1` gave an Inhibition % of 102%.
Compound `Cn1nccc1C=CC(=O)N1CCCC1C(=O)O` (stereo not drawn) has an Inhibition % of 4.09%.
`O=S(=O)(CCCl)Cc1ccccc1` showed an Inhibition % of 4.84%.
`C=CC(=O)Nc1cc(C(=O)N2CCCCC2)[nH]n1` gave an Inhibition % of 18.3%.
Compound `C=CC(=O)NCc1csc(-c2ccco2)n1` has an Inhibition % of 14%.
Work on `O=C1CCN1c1ccc(O)cc1` yielded an Inhibition % of 5.37%.
With `N#Cc1ccc(N[C@H]2C[C@@H]2C(F)F)cn1` the Inhibition % was 16.5%.
With `CCN(CCC#N)S(=O)(=O)C=Cc1ccccc1Cl` the Inhibition % was 6.99%.
`N#Cc1ccc2[nH]ccc2n1` was tested, and the Inhibition % was 18.7%.
Work on `C=CC(=O)N1CCN(C(=O)c2cccc(Cl)c2)CC1` yielded an Inhibition % of 4.01%.
Work on `Cc1ccc(NC(C)c2ccncc2)nc1C#N` (stereo not drawn) yielded an Inhibition % of 10.9%.
`CCc1cccc(CC)c1NC(=O)CCl` showed an Inhibition % of 4.13%.
Work on `CC(C)n1ccc(B2OC(C)(C)C(C)(C)O2)n1` yielded an Inhibition % of 3.12%.
With `C=CC(=O)NC1CC2CCCC(C1)N2C` (stereo not drawn) the Inhibition % was 31.9%.
`O=C(CCl)Nc1ccccc1Sc1ccc(Cl)cc1` showed an Inhibition % of 5.16%.
Work on `c1coc(COCC2CO2)c1` (stereo not drawn) yielded an Inhibition % of 3.97%.
Work on `Cc1cnn(CC2CN(C3CCOC3=O)CCO2)c1` (stereo not drawn) yielded an Inhibition % of 9.57%.
For `CC(C)(C)OC(=O)NC1(c2ccc(B3OC(C)(C)C(C)(C)O3)cc2)CC1`, the Inhibition % was 2.75%.
Work on `Fc1ccc(C2CO2)nc1` (stereo not drawn) yielded an Inhibition % of 4.53%.
`CN(C)C(=O)c1cccc(NC(=O)CCl)c1` gave an Inhibition % of 12.2%.
With `CNC(=O)Nc1ccc(S(=O)(=O)F)cc1` the Inhibition % was 22.2%.
In the case of `CCCn1c(C)cc(C=C(C#N)C(=O)N2CCCC2)c1C`, the Inhibition % is reported as 5.63%.
Work on `NC(=O)c1cc(-c2ccccc2)sc1NC(=O)CCl` yielded an Inhibition % of 79.3%.
In the case of `CC(C)C(C#N)N1CCN(C(=O)CCl)CC1` (stereo not drawn), the Inhibition % is reported as 5.7%.
Compound `Nc1ncnc2c1ncn2CCCCl` has an Inhibition % of 2.3%.
With `O=C(NCc1ccn(C2CCCC2)n1)c1cccnc1S` the Inhibition % was 1.51%.
`CS(=O)(=O)C(C#N)=Cc1ccc(Cl)cc1` gave an Inhibition % of 11.4%.
For `O=C1CCc2cc(OCC3CO3)ccc2N1` (stereo not drawn), the Inhibition % was 3.5%.
Compound `CSCc1cc(F)ccc1CNc1nccnc1C#N` has an Inhibition % of 2.57%.
Work on `CC1CC(N2CCN(C)c3ccccc3C2)C(=O)O1` (stereo not drawn) yielded an Inhibition % of 0.987%.
For `O=C1OCCC1N1CCN(C(=O)c2cccs2)CC1` (stereo not drawn), the Inhibition % was 9.27%.
In the case of `CC1CC1C(=O)N1CCC(S(=O)(=O)F)C1` (stereo not drawn), the Inhibition % is reported as 36.5%.
In the case of `C=CC(=O)N1CCCC(CCC)CC1` (stereo not drawn), the Inhibition % is reported as 8.71%.
Compound `O=S(=O)(F)CCSc1nnc2ccccn12` has an Inhibition % of 53.9%.
`CCC(CSC)Nc1ccc(C#N)nc1` (stereo not drawn) showed an Inhibition % of 11.4%.
Compound `CC1CCC(N(C(=O)CCl)C2CC2)CC1` (stereo not drawn) has an Inhibition % of 74.1%.
Work on `O=C(CCl)c1ccc(N2CCCC2=O)cc1` yielded an Inhibition % of 0.305%.
In the case of `N#Cc1ncn(CCC(=O)Nc2cccc(F)c2)n1`, the Inhibition % is reported as 1.26%.
`O=C(O)CCN1C(=O)CSC1=O` was tested, and the Inhibition % was 13%.
Compound `Cc1ccc(C=CC(=O)N2CCCC(C(=O)O)C2)s1` (stereo not drawn) has an Inhibition % of 3.55%.
Compound `C=CC(=O)N1CCC12CCC(CO)CC2` (stereo not drawn) has an Inhibition % of 4.92%.
With `Cl.Nc1ncc(CCCl)s1` the Inhibition % was 8.22%.
For `Cl.NC1CCN(S(=O)(=O)C=Cc2cccc(Cl)c2)CC1`, the Inhibition % was 8.51%.
Work on `CC(C)(C)c1cccc(C#N)n1` yielded an Inhibition % of 4.76%.
Work on `O=C(CCl)Nc1ccccc1SC(F)F` yielded an Inhibition % of 9.47%.
Work on `Cc1ccc2cccc(OC(=O)N3CCOCC3)c2n1` yielded an Inhibition % of 3.15%.
Compound `CCC1(C)NC(=O)N(NC(=O)CCl)C1=O` (stereo not drawn) has an Inhibition % of 9.56%.
Compound `C=CC(=O)N1CCN(Cc2cc(F)ccc2OC)CC1` has an Inhibition % of -0.162%.
With `Cc1nc(C2CC2)nc(S)c1C(=O)O` the Inhibition % was 51.1%.
`CCOc1ccc(C2CCCN2C(=O)n2ccnc2)cc1` (stereo not drawn) showed an Inhibition % of 2.03%.
In the case of `CC1(C)OB(c2ccc(NC(N)=O)cc2)OC1(C)C`, the Inhibition % is reported as 2.48%.
`C=CC(=O)NC1CCCC(C(=O)N(C)C)C1` (stereo not drawn) gave an Inhibition % of 2.64%.
For `C=CCNC(=O)C(C#N)=Cc1ccc(OC)cc1`, the Inhibition % was 7.92%.
`CC1CN(C(=O)C=Cc2cnn(C)c2)CC(C)O1` (stereo not drawn) was tested, and the Inhibition % was 12.8%.
Work on `COc1ccc(C=C(C#N)S(C)(=O)=O)cc1` yielded an Inhibition % of 5.15%.
In the case of `Cc1c(Cl)ccc(S(=O)(=O)n2cccn2)c1Cl`, the Inhibition % is reported as 2.22%.
`C=CC(=O)N1CC(C)(C)C1c1ccccc1` (stereo not drawn) was tested, and the Inhibition % was 15.7%.
`O=S(=O)(c1ccc(S)nc1)N1CCCCC1` showed an Inhibition % of 7.61%.
For `C=CC(=O)NCCC1CSc2ccccc2O1` (stereo not drawn), the Inhibition % was 1.16%.
`O=S(=O)(Nc1ccccc1-c1ncco1)C1=CCCCC1` showed an Inhibition % of 6.78%.
For `N#CC(=Cc1ccccc1)C(=O)O`, the Inhibition % was 0.493%.
Work on `Cc1nc(N)ccc1B1OC(C)(C)C(C)(C)O1` yielded an Inhibition % of 3.19%.
`C=CC(=O)NC1(C)CCC(F)(F)CC1` was tested, and the Inhibition % was 8.52%.
`O=C(Oc1ccc2ccccc2c1)N1CCOCC1` showed an Inhibition % of 9.43%.
